Assay results as given in the supplement of paper PMC10670038.
Counter-ions that a name gives are not always drawn. ± gives the standard deviation of the averaged measurements. Over roughly 2,000 compounds, “relative cell viability vs DMSO, compound + 0.2 uM CuET” has its median near 1; the lowest 2% begin near 0.25. This is one part of the list.

Tested on: TE10
Experiment: relative cell viability vs DMSO, compound + 0.2 uM CuET (fraction); TE10 is an esophageal squamous carcinoma line; higher = less cytotoxic
Conditions: 2 µM; co-treatment: CuET (bis(diethyldithiocarbamate)copper) 0.2 uM; 48 h
Procedure: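 TE10 ESCC cells (1,000/well, 384-well plates) were treated with Selleck bioactive library compounds at 2 uM combined with 0.2 uM CuET (copper diethyldithiocarbamate) for 48 h. Viability was read by CellTiter-Glo and expressed relative to DMSO wells. Two technical replicates (A, B).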

| Structure (SMILES) | relative cell viability |
| --- | --- |
| CN(C)c1ccc(C(=C2C=CC(=[N+](C)C)C=C2)c2ccc(N(C)C)cc2)cc1 [Crystal Violet] | 0.308 ± 0.029 |
| CC(C(=O)O)c1ccc2c(c1)CC(=O)c1ccccc1S2 (stereo not drawn) [Zaltoprofen] | 0.452 ± 0.49 |
| Oc1cc2c(cc1O)[C@@H]1c3ccc(O)c(O)c3OC[C@]1(O)C2 [Hematoxylin] | 1.02 ± 0.17 |
| Cc1nc(-c2ccc(OCC(C)C)c(C#N)c2)sc1C(=O)O [Febuxostat] | 1.01 ± 0.081 |
| Cc1cc(Nc2nc(N[C@@H](C)c3ccc(F)cc3)c(C#N)cc2F)n[nH]1 | 0.88387 ± 0.00071 |
| Cc1nc(Nc2ncc(C(=O)Nc3c(C)cccc3Cl)s2)cc(N2CCN(CCO)CC2)n1 [Dasatinib] | 1.19 ± 0.016 |
| Cc1nc(Nc2ncc(C(=O)Nc3c(C)cccc3Cl)s2)cc(N2CCN(CCO)CC2)n1 [Dasatinib Monohydrate] | 1.06 ± 0.12 |
| COc1cc(N2CCC(N3CCN(C)CC3)CC2)ccc1Nc1ncnc(Nc2ccccc2S(=O)(=O)C(C)C)n1 | 1.1 ± 0.052 |
| CCOC(=O)c1c(CSc2ccccc2)n(C)c2cc(Br)c(O)c(CN(C)C)c12 [Arbidol HCl] | 0.778 ± 0.12 |
| CCN1CCN(Cc2ccc(-c3cc4c(N[C@H](C)c5ccccc5)ncnc4[nH]3)cc2)CC1 | 1.11 ± 0.1 |
| COc1cc([C@@H]2c3cc4c(cc3[C@@H](O[C@@H]3O[C@@H]5CO[C@@H](c6cccs6)O[C@H]5[C@H](O)[C@H]3O)[C@H]3COC(=O)[C@H]23)OCO4)cc(OC)c1O [Teniposide] | 0.661 ± 0.023 |
| O=c1[nH]cnc2c1ncn2[C@@H]1O[C@H](CO)[C@@H](O)[C@H]1O [Inosine] | 1.05 ± 0.041 |
| CCOc1ccccc1OC(c1ccccc1)C1CNCCO1 (stereo not drawn) [Reboxetine mesylate] | 1.2 ± 0.37 |
| O=C1NC(=O)/C(=C/c2ccc3c(c2)OC(F)(F)O3)S1 | 0.434 ± 0.49 |
| Nc1ccc(C(=O)Nc2cccc(-c3nc(N4CCOCC4)c4oc5ncccc5c4n3)c2)cn1 | 0.352 ± 0.019 |
| CN(C)CCCN1c2ccccc2Sc2ccc(Cl)cc21 [Chlorpromazine HCl] | 0.951 ± 0.033 |
| Cc1nc(-c2cccnc2)sc1C(=O)Nc1ccccc1-c1cn2c(CN3CCOCC3)csc2n1 | 1.17 ± 0.019 |
| O=c1ccc2ccccc2o1 [Coumarin] | 1.1 ± 0.068 |
| Cc1[nH]c2ccccc2c1CCNCc1ccc(/C=C/C(=O)NO)cc1 [Panobinostat (LBH589)] | 0.151 ± 0.0045 |
| Cc1cc(C)c(S(=O)(=O)n2cc(C)cc2C)c(C)c1 | 1.01 ± 0.095 |
| O=C(O)[C@H]1O[C@@H](Oc2cc3oc(-c4ccccc4)cc(=O)c3c(O)c2O)[C@H](O)[C@@H](O)[C@@H]1O [Baicalin] | 0.848 ± 0.058 |
| Cn1cc(-c2ccncc2)c(-c2ccc(OCc3ccc4ccccc4n3)cc2)n1 | 0.844 ± 0.14 |
| O=C1C(=O)c2ccccc2C(O)=C1C1CCC(c2ccc(Cl)cc2)CC1 (stereo not drawn) [Atovaquone] | 1.12 ± 0.054 |
| COC1CCN(C(=O)c2cc(Cc3n[nH]c(=O)c4ccccc34)ccc2F)CC1 | 1.28 ± 0.036 |
| c1cncc(CN2CCC(n3ncc4c(N5CCOCC5)nc(-c5ccc6[nH]ccc6c5)nc43)CC2)c1 | 0.835 ± 0.053 |
| CCOC(=O)c1ccc(N)cc1 [Benzocaine] | 1.2 ± 0.036 |
| CCN(CC)CCOC(=O)C(c1ccccc1)c1ccccc1 [Adiphenine HCl] | 1.02 ± 0.1 |

| Structure (SMILES) | relative cell viability |
| --- | --- |
| OC(CCCN1CCCCC1)(c1ccccc1)c1ccccc1 [Diphenidol HCl] | 1.05 ± 0.025 |
| CCCCCCCCCCCCc1ccc(S(=O)(=O)Nc2nncs2)cc1 | 1.15 ± 0.021 |
| Cc1ncc(Cl)cc1NCc1ccc(C(=O)N[C@@H](CC2CCCC2)C(=O)NC2CC2)s1 | 1.19 ± 0.051 |
| COc1cc(C(C)=O)ccc1O [Apocynin] | 1.13 ± 0.016 |
| CCOc1ccc2nc3cc(N)ccc3c(N)c2c1 [Ethacridine lactate monohydrate] | 0.915 ± 0.038 |
| CN(Cc1cnc2nc(N)nc(N)c2n1)c1ccc(C(=O)N[C@@H](CCC(=O)O)C(=O)O)cc1 [Methotrexate] | 0.404 ± 0.018 |
| Nc1cc(F)ccc1NC(=O)/C=C/c1cnn(C/C=C/c2ccccc2)c1 | 1.01 ± 0.024 |
| NC(N)=Nc1nc(CSCC/C(N)=N/S(N)(=O)=O)cs1 [Famotidine] | 1.03 ± 0.038 |
| CC1=C(/C=C/C(C)=C/C=C/C(C)=C\C(=O)O)C(C)(C)CCC1 [Isotretinoin] | 0.854 ± 0.33 |
| CC/C(=C(/CC)c1ccc(O)cc1)c1ccc(O)cc1 [Diethylstilbestrol] | 1.16 ± 0.024 |
| CC(C)c1cc2c(N3CCN(C4=NCC(C)(C)S4)CC3)ncnc2s1 [MI-3 (Menin-MLL Inhibitor)] | 0.972 ± 0.023 |
| COc1cc(OC)c(/C=C/S(=O)(=O)Cc2ccc(OC)c(NCC(=O)O)c2)c(OC)c1 | 0.604 ± 0.066 |
| OC(CN1CCN(c2cccc(Cl)c2)CC1)C(c1ccccc1)c1ccccc1 (stereo not drawn) | 0.759 ± 0.22 |
| COc1ccc(-c2ccc3c(N4CCOCC4)nc(N4C[C@@H](C)O[C@@H](C)C4)nc3n2)cc1CO | 0.537 ± 0.22 |
| O=c1[nH]c(=O)n([C@H]2C[C@H](O)[C@@H](CO)O2)cc1Br [Bromodeoxyuridine (BrdU)] | 0.956 ± 0.16 |
| COc1cc(NC(C)CCCN)c2ncccc2c1 (stereo not drawn) [Primaquine Diphosphate] | 1.02 ± 0.026 |
| Cc1ccc([N+](=O)[O-])cc1S(=O)(=O)N(C)/N=C/c1cnc2ccc(Br)cn12 | 0.507 ± 0.015 |
| CCCCCCCc1ccc(CCc2cccc(O)c2C(=O)O)cc1 | 1.17 ± 0.14 |
| CCN(CC)CCCCNc1ncc2cc(-c3cc(OC)cc(OC)c3)c(NC(=O)NC(C)(C)C)nc2n1 | 1.28 ± 0.097 |
| CC[C@@H](CO)NCCN[C@@H](CC)CO [Ethambutol HCl] | 1.17 ± 0.17 |
| C=CS(=O)(=O)NC1CCN(C(=O)CNc2cc(I)c(Cl)cc2OC)CC1 [K-Ras(G12C) inhibitor 9] | 0.699 ± 0.08 |
| CCCOc1ccc(C(=O)OCCN(CC)CC)cc1N [Proparacaine HCl] | 0.95 ± 0.092 |
| C#C[C@]1(O)CC[C@H]2[C@@H]3CCC4=CC(=O)CC[C@@H]4[C@H]3CC[C@@]21CC [Levonorgestrel] | 1.13 ± 0.095 |
| Cn1cc(-c2ccc3c(c2)CCN3C(=O)Cc2cccc(C(F)(F)F)c2)c2c(N)ncnc21 | 0.897 ± 0.087 |
| Oc1cccc(-c2nc(N3CCOCC3)c3oc4ncccc4c3n2)c1 | 0.59 ± 0.098 |
| CC(=O)OCC(=O)[C@H]1CC[C@H]2[C@@H]3CCC4=CC(=O)CC[C@]4(C)[C@H]3CC[C@]12C [Deoxycorticosterone acetate] | 1.16 ± 0.14 |
